Experimental data taken from the supplement of paper PMC10338343.
± gives the standard deviation. The entries are a selection whose mix differs from that of the whole data set.

These sequences were tested on MIWI (PIWIL1) piRISC loaded with L1MC piRNA (30 nt) (assay: pre-steady-state target cleavage rate (min^-1); MIWI and MILI are mouse PIWI proteins and EfPiwi is from a freshwater sponge; tags in brackets are library labels; higher = faster piRNA-guided slicing of the target). Conditions: guide: L1MC piRNA 5'p-UAACUAAAUACUAUGCAAGCUGUAGGUCCU; auxiliary factor: 500 nM mouse GTSF1.
Summary of the method: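 Active affinity-purified piRISC carrying one synthetic guide (1 nM) was mixed with a transcribed, DNA-blocked target RNA library […] in HEPES–potassium acetate buffer at 33 °C for 0–8 or 0–960 min, with or without 500 nM GTSF1 partner protein. Uncleaved targets were then sequenced and normalised to depth and to weakly complementary targets. Three trials were pooled, and k3 was capped at 0.0001 min^-1. A burst-and-steady-state fit was applied to obtain the pre-steady-state cleavage rate.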
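Further: 1 nM active piRISC with 0.1 nM target library at 33 °C single turnover.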

Row | Sequence | pre-steady-state target cleavage rate
1 | UCCUGCUACAGCUUGCAUAGUAAAAAGUUA | 0.362 ± 0.043
2 | UCCUGGAUGUCGUUGCAUACUAUUUAGUUA | 0.00357 ± 0.0027
3 | UCCUGCUACAGCUUGGAUAGUAUUUAGAAA | 0.0981 ± 0.022
4 | UCGACCUACAGCUACGAUAGUAUUUAGUUA | 0.135 ± 0.021
5 | UCCUGGUACAGCUUGCAUAGUAUAAACAAA | 0.0984 ± 0.028
6 | UCCUGGUACAGGAUGCAUAGUAUUUAGAAA | 0.0179 ± 0.0065
7 | UCCACCUACAGCUUGCAUAGUAUAUAGAUA | 0.428 ± 0.087
8 | UCCUGGAUGUCGAACGUAUGAUUUUAGUUA | < 0.0001
9 | UCCUGGAUGAGCUUGCUUUGUAUUUAGUUA | 0.00719 ± 0.0033
10 | UCCACCUACAGCUUGCAUAGCUAUUUAGUUA | 0.0166 ± 0.0079
11 | UCCUGGAUCAGCUUCCAUAGUAUUUAGAAA | 0.00542 ± 0.0041
12 | UCCUGCUACAGGAUGCAUAGUAUUUACAAA | 0.0324 ± 0.0099
13 | UCCUGGAUGUCGAAGCAUAGUAUUGAGUUA | 0.00956 ± 0.0032
14 | AGGACCUACAGCUUCGUUAGUAUUUAGUUA | 0.105 ± 0.014
15 | UCCUGGAACAGCUUGCAUUAGUAUUUAGUUA | 0.0171 ± 0.0076
16 | UCGACCUACAGCAUGCAUAGUAUUUUCAAA | 0.415 ± 0.059
17 | UCCUGGAUGUCCUUGGAUAGUAUUUAGUAA | 0.0605 ± 0.013
18 | UCGACCUACAGCUUGCAUAGUAUUAUCUAA | 0.463 ± 0.058
19 | UGGACCUACAGCAUGCAUAGUAUUUUCAAA | 0.304 ± 0.052

Row | Sequence | pre-steady-state target cleavage rate
20 | UCCUCCUACAGCUUCGUUAGUAUUUAGUUA | 0.0754 ± 0.0086
21 | UCCUGGAAGAGCUUGCAUAGUAUUUUCAAA | 0.0646 ± 0.018
22 | UCGACCUACAGGUUCCAUAGUAUUUAGUUA | 0.0899 ± 0.027
23 | UCCUGGAACAGCUUGCUUAGUAUUUUCAAA | 0.108 ± 0.022
24 | UCCUCCUACACCUUGCAUAGUAUUUUCAAA | 0.339 ± 0.071
25 | UCGACCUACAGCUUGCAUAGAUAUUAGUUA | 0.144 ± 0.046
26 | UCCUGGUACAGCUUGCAUAGUAUAUAGAAA | 0.343 ± 0.077
27 | UGGACCUACAGCUUCCAUAGAAUUUAGUUA | 0.00637 ± 0.0025
28 | UCCUGGUACAGCUUGCAUAGUAUUAGUUA | 0.087 ± 0.019
29 | UCCUCCUACAGCUUGCAUAGUAAAAAGAAA | 0.204 ± 0.052
30 | UCCUCCUACAGGUUCCAUAGUAUUUAGUUA | 0.165 ± 0.046
31 | UCCUGGAUGUGCUUCCAUAGUAUUUAGUUA | 0.0109 ± 0.004
32 | UCCUGGAUGUCGAACGUAUCUAUUUAGUAUA | < 0.0001
33 | UCGACCUACAGCUUGCAUAGUUAUUAGAAA | 0.154 ± 0.039
34 | UCCACCUACAGCUUCCAUAGUAUUUAGUUA | 0.292 ± 0.088
35 | UCCUGGAUGUCGAACGUAUCUAUAAAGUUA | < 0.0001
36 | UCGACCUACAGGAUGCAUAGUAUUUUCAAA | 0.244 ± 0.033
37 | UCCUGGAUGAGCUUGCAUAGUAUUAUCAAA [g7:g21:cont:t1A] | 0.0183 ± 0.0063
38 | UCCUGGAACAGCAACCAUAGUAUUUAGUUA | 0.017 ± 0.0031
